Measurements published in PMC4336329 (PLoS ONE, 2015).
Hit rate of the full screen: of about 310,000 compounds, about 2,200 (0.71%) showed an effect of 50% or more. Effects have a minus sign here. This is one part of the list.

What follows are compounds tested against human ether-à-go-go-related gene (hERG) potassium channel (human, UniProt Q12809) (assay: primary screen, population patch clamp on CHO cells stably expressing hERG).
human ether-à-go-go-related gene (hERG) potassium channel, sequence (Q12809 whole entry, looked up): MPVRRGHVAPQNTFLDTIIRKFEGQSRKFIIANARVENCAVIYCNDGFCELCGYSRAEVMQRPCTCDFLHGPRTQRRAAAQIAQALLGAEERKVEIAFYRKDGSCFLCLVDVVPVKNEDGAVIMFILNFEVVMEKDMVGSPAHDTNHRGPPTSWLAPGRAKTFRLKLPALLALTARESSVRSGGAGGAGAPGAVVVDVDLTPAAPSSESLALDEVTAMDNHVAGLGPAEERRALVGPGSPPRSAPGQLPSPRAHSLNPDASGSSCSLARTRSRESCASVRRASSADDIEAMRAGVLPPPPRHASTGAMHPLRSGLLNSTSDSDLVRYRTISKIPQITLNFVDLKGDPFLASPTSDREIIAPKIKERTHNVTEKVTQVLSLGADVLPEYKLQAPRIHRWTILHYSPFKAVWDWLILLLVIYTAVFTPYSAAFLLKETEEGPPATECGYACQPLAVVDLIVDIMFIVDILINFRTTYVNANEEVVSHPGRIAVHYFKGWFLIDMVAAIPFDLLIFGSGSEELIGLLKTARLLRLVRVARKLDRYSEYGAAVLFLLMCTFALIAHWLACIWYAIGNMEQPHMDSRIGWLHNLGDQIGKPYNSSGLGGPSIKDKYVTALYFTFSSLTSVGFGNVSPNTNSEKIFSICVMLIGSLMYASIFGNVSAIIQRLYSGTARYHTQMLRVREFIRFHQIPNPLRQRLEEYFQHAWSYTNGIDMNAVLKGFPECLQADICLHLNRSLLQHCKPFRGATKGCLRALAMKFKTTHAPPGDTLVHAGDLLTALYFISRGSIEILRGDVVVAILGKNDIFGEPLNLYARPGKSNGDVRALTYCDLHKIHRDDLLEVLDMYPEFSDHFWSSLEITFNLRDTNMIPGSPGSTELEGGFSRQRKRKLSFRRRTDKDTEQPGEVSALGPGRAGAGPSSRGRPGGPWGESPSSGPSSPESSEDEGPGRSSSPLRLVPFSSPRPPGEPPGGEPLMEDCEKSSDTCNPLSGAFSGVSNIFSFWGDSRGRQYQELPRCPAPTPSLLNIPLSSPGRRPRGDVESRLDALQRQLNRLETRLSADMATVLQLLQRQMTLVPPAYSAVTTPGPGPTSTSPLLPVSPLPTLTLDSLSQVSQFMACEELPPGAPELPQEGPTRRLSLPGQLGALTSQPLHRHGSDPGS

Compound | hERG current change (%, negative = inhibition) at 1uM
Cn1nc(N2CCN(S(=O)(=O)c3ccccc3)CC2)c(=O)n(C)c1=O | 4.75%
Cc1ccc(-c2nn(CCC(=O)O)cc2/C=C\C(=O)c2ccc(Br)cc2)cc1 | 13%
O=C(CCN1C(=O)c2ccccc2C1=O)Nc1cccc(O)c1 | 8.04%
COc1ccc(C(=O)Nc2ccc(C)cc2C(=O)c2ccccc2)c(OC)c1 | 7.13%
CCN1CCN(c2nc3sc4c(c3c(=O)n2-c2ccc(OC)cc2)CCCCC4)CC1 | -11.1%
Cc1ccc(C(=O)NCC(=O)N2CCc3ccccc3C2)cc1C | 3.9%
CN1C(=O)NC(c2ccc(O)cc2)C2=C1CN(c1cccc3ccccc13)C2=O (stereo not shown) | -7.61%
C=CCNC(=O)c1ccc2c(=O)n(Cc3ccccc3OC)c(=S)[nH]c2c1 | 15.5%
Cc1ccc(CNC(=O)CC2C(=O)Nc3c2c(=O)n(C)c(=O)n3Cc2ccccc2)cc1 (stereo not shown) | -1.85%
CCOC(=O)C1=C(C)N=c2s/c(=C\c3ccc(OCC(=O)O)cc3)c(=O)n2C1c1ccccc1OC (stereo not shown) | 13.6%
O=C(CSc1nnc2n1CCCN2)c1ccccc1 | 6.1%
CCOc1ccccc1NC(=O)CSc1nc(=O)n(CCN2CCOCC2)c2c1CCCC2 | -2.38%
COc1ccc(-c2cn(-c3ccc(Cl)cc3)c3[n+]2CCCCC3)cc1.[Br-] | 1.02%
COc1ccc(NS(=O)(=O)c2ccc(F)c(Cl)c2)cn1 | 10.6%
CCc1c(C2(O)CCCCC2)[nH]c2ccc(C(F)(F)F)cc12 | 23.6%
O=C(CN(Cc1cccs1)C(=O)CNS(=O)(=O)c1ccc(Cl)cc1)NCc1ccco1 | -5.7%
CCOC(=O)N1CCN(Cc2nc3ccc([N+](=O)[O-])cc3c(=O)n2-c2cccc(OC)c2)CC1 | 0.339%
O=C(CCSc1nnc(-c2ccncc2)o1)Nc1ccccc1Cl | 5.85%
Cc1ccsc1/C=C/c1n[nH]c(=O)c(C#N)c1C | 12.9%
COc1ccc(S(=O)(=O)Nc2cc3c4c(c2)CCN4C(=O)CC3)cc1C | -0.0573%
COc1ccc(C(=O)NC(C)c2nccs2)cc1OC1CCN(C(C)C)CC1 (stereo not shown) | 13.2%
O=C(CCC1CCCCC1)NNC(=O)c1cnccn1 | 2.55%

Compound | hERG current change (%, negative = inhibition) at 1uM
COc1ccc(-c2cc(CNC(C)=O)on2)cc1 | 5.73%
Nc1ccn(-c2ncc(C(F)(F)F)cc2Cl)c(=O)n1 | 7.65%
COc1ccc(-n2ncc3c(N(C)C4CCCCC4)ncnc32)cc1 | 12.8%
COc1cc(SC)ccc1C(=O)Nc1ccccc1 | 8.14%
Cc1nc(-c2coc3cc(OCC(=O)O)ccc3c2=O)cs1 | -0.283%
CC(C)(C)NC(=O)Cc1ccc(Cl)c(Cl)c1 | 4.16%
Nc1nnc(CC(=O)N/N=C/c2cccc([N+](=O)[O-])c2)s1 | 10.7%
COCCOC(=O)c1c(NC(=O)CNC2CCCc3ccccc32)sc(C(N)=O)c1C (stereo not shown) | 10.5%
Cc1ccccc1OCCOc1cccc(/C=N/NC(=O)Cc2nnc(N)s2)c1 | 9.37%
C=CCNc1nc(NCCN2CCOCC2)nc(OC)n1 | -3.49%
O=C(c1cccc(Cl)c1)N1CCN(C(=O)c2ccco2)CC1 | 1.69%
CCc1ccc(NC(=O)CSc2nc3ccccc3nc2N2CCCC2)cc1 | 17%
O=C(Nc1ccc(C(=O)N2CCN(c3ccccn3)CC2)cc1)c1ccc(Br)o1 | -10.3%
Cn1c(=O)c(=O)n(C)c2cc(S(=O)(=O)N3CCCC3C(=O)Nc3ccc(F)cc3)ccc21 (stereo not shown) | 1.23%
CCOC(=O)N1CCC(NC(=O)C2CCCN(Cc3nc(-c4cccc(Cl)c4)oc3C)C2)CC1 (stereo not shown) | -50.4%
Cc1ccccc1NC(=O)CCN1CCN(C)CC1 | 12.7%
Cc1cc(OCC(=O)N2CCc3ccccc3C2)c2c(-c3ccccc3)cc(=O)oc2c1 | 4.28%
N/C(=N\NC(=O)c1ccccc1Cl)c1cc2ccccc2oc1=O | 18.8%
O=C1CC(NNC(=O)c2ccc(Br)cc2)C(=O)N1 (stereo not shown) | 15.2%
COc1ccc(/C=C(\C#N)c2cc(OC)c(OC)cc2[N+](=O)[O-])cc1 | 11.9%
Cc1ccccc1C(=O)c1cccn1CC(=O)NCCC1=CCCCC1 | 11.5%
ClC(Cl)c1nnc(-c2ccccc2)c(-c2c[nH]c3ccccc23)n1 | 11.6%

Compound | hERG current change (%, negative = inhibition) at 1uM
O=C(OCc1cnc(Cl)s1)c1cccc(Cl)c1 | -5.8%
CC(C)(OC(=O)c1cccs1)c1cc2ccccc2c(=O)o1 | 11.7%
COc1cc(NC(=S)NCc2cccnc2)c(OC)cc1Cl | -4.32%
OC1(c2ccc(Cl)cc2)CCN(Cc2cn[nH]c2-c2ccccc2)CC1 | -46%
O=C(O)c1cccc(S(=O)(=O)Nc2ccc3c(c2)OCO3)c1 | 15.6%
Cc1ccc(C(=O)OCC(=O)c2c[nH]c3ccccc23)cc1NC(=O)c1ccco1 | 4.66%
O=C(O)c1cc(S(=O)(=O)Nc2ccccc2C(=O)O)ccc1O | 6.16%
CCN1CCOC(CC(=O)Nc2ccc([N+](=O)[O-])cc2)C1=O (stereo not shown) | 8.4%
CN(C)S(=O)(=O)Oc1ccsc1C(=O)Nc1cccc(Cl)c1 | 16.6%
COc1ccc(C(=O)C2CCCN(S(=O)(=O)c3cccc(C)c3)C2)c(C)c1 (stereo not shown) | 17.5%
O=C(c1ccccc1)C(O)C(c1ccccc1)N1CCOCC1 (stereo not shown) | 14.3%
CC(C(=O)C12CC3CC(CC(C3)C1)C2)N1CCOCC1.Cl (stereo not shown) | 20.5%
COc1ccc(C(=O)CCC(=O)Nc2cccnc2)cc1 | 2.13%
O=C(Cn1cncn1)NCc1cc(F)ccc1F | 13.8%
CC(C)(C)NC(=O)C(c1ccc(F)cc1)N(Cc1ccco1)C(=O)c1csnn1 (stereo not shown) | 8.39%
Cc1cc2cc(C)c3nnc(SCC(=O)N4CCN(C(=O)c5ccco5)CC4)n3c2cc1C | 2.79%
CC(=O)c1cccc(NC(=O)C2C(c3ccccc3)C2(Cl)Cl)c1 (stereo not shown) | 15.9%
CC(C)N(CCC#N)C(=O)Nc1ccc2c(c1)CCO2 | 9.98%
COc1ccc([N+](=O)[O-])cc1NC(=O)C(C)OC(=O)C1c2ccccc2Oc2ccccc21 (stereo not shown) | 22.1%
Cc1ccc(NC(=O)NCc2ccc3[nH]c(C)cc3c2)cc1 | 9.68%
O=C(CNC(=O)COc1ccccc1)NCc1ccccc1F | 4.01%
O=C1N(Nc2ccccc2)C(c2ccc(Br)cc2)C12CCCC2 (stereo not shown) | 18.3%

Compound | hERG current change (%, negative = inhibition) at 1uM
COc1ccc(COc2ccc3c(C)cc(=O)oc3c2)cc1 | 7.12%
Cc1ccc(S(=O)(=O)NC(CC(C)C)C(=O)N2CCOCCOCCOCCOCC2)cc1 (stereo not shown) | 8.13%
Cc1ccccc1NC(=O)CSc1nc(N)c2c3c(sc2n1)CSC(C)(C)C3 | 10.8%
CC(C)CCN1CCN(C2CSCCSC2)CC1CCO (stereo not shown) | 8.36%
CCN(CC)c1ccc(SS(=O)(=O)[O-])cc1.[Na+] | 4.84%
Cc1cnc(NC(=O)C2(c3ccccc3)CC2)s1 | 5.59%
COC(=O)CN(C)C(=O)c1cccc(OC2CCN(S(=O)(=O)N(C)C)CC2)c1 | 13.6%
COC(=O)c1c(NC(=O)c2ccc(S(=O)(=O)N3CCOCC3)cc2)sc2c1CCN(C(C)C)C2 | 8.34%
CC(OC(=O)c1cc(Br)ccc1O)C(=O)Nc1ccc(S(=O)(=O)N2CCCC2)cc1 (stereo not shown) | 5.94%
CC(C)C(=O)Nc1ncc2c(n1)CC(c1cccs1)CC2=O (stereo not shown) | -1.71%
COC(=O)c1cnc(Oc2ccc(NC(=O)NC(=O)c3c(F)cccc3Cl)cc2)cc1C(F)(F)F | 12.2%
C/C(=N\NC(=O)c1ccc(NS(=O)(=O)c2cccs2)cc1)c1ccncc1 | 8.14%
COC(=O)c1c(-c2ccccc2)csc1NC(=O)C1CC=CCC1C(=O)O (stereo not shown) | 20.5%
Cc1ccc(S(=O)(=O)N2CCC(C(=O)OCC(=O)N3CC(C)CC(C)C3)CC2)cc1C (stereo not shown) | 13.2%
O=C(O)c1ccc(N/N=C/c2ccc(-c3ccccc3Cl)o2)cc1 | 14.3%
C=CCNC(=O)c1ccc(-c2cccc([N+](=O)[O-])c2)o1 | 0.345%
CCCSc1nc(N)c2c3c(sc2n1)CN(C)CC3 | -2.01%
COc1ccccc1CN1C[C@@H]2C[C@@H](c3cccc(C)c3)N3CCC[C@@]23C1=O | -2.68%
CCc1sc(NC(=O)CCC(=O)O)nc1-c1cc2ccccc2oc1=O | 16%
c1csc(Cc2nn3c(-c4ccncc4)nnc3s2)c1 | -4.09%
Cc1cccc(NC(=O)/C(C#N)=C\c2cccnc2)c1 | -0.281%
CC(NC(=O)NC(=O)c1cccc(Cl)c1)c1ccccc1 (stereo not shown) | 15.4%
